Measurements published in PubChem BioAssay AID463173 (ICCB-Longwood Screening Facility, Harvard Medical School, 2010).
Among all 52,000 compounds or so, about 1,700 (3.3%) were called active. Cut-off read from the data, not from the text of the source: active = survival mostly below about 52% (no sharp cut-off); inactive = mostly above about 56%. The list shows a part of the results.

tested on: Wild type; assay: S. aureus survival, RN4220 and DeltatarO strains – OD600, teichoic acid synthesis inhibitors, primary screen (AID 463173); details: S. aureus RN4220 wild type/DeltatarO growth, OD600, 18 h, stronger effect = lower value, screened at 18.75 µg/mL (by protocol)

`Cc1ccc(-c2nc3sc(CCNC(=O)c4ccc(C)c(C)c4)c(C)n3n2)cc1` was tested. Which survival did it give?
The survival was inactive: 59%.

For `COc1ccc(C(=O)n2nc(-c3ccco3)nc2NCc2cccs2)cc1OC`, which survival is on record?
Its survival is inactive: 100%.

How did the survival turn out when `CCc1ccccc1NC(=O)N(C)CCc1c(C)nn(C)c1C` was run?
The survival was inactive: 120%.

Which survival does the source give for `CC(=O)c1cccc(NC(=O)c2cc(-c3ccc(Cl)s3)nc3ccccc23)c1` here?
Its survival is inactive: 105%.

`CCn1c(CNC(=O)c2ccccc2)n[nH]c1=S` was tested. Which survival did it give?
Its survival is inactive: 125%.

Which survival does the source give for `COc1ccc(NC(=O)CC2C(=O)N(c3cccc(C)c3)C(=O)N2C2CCCCC2)cc1` (stereo unspecified) here?
Its survival is inactive: 80%.

How did the survival turn out when `Cc1cc(/C=C(\C#N)C(=O)NCc2cccs2)c(C)n1C1CCCC1` was run?
Its survival is inactive: 112%.

How did the survival turn out when `CCNc1nc2n(c(=O)n1)CCN2CC` was run?
The survival was inactive: 129%.

Which survival does the source give for `COc1ccc(-c2nnc(SCC(=O)Nc3ccc(C(C)C)cc3)nc2-c2ccc(OC)c(OC)c2)cc1OC` here?
Its survival is inactive: 75%.

Which survival does the source give for `CC(C)c1ccc(S(=O)(=O)c2nnn3c2nc(N2CCCCC2)c2sccc23)cc1` here?
Its survival is inactive: 69%.

With `C1=C(C(c2nnnn2C2CCCCC2)N2CCCCC2)COc2ccccc21` (stereo unspecified) as the molecule, how does the survival read?
The survival was inactive: 103%.

With `Cc1ccc(C)c(Cn2c(-c3cccs3)nc3ccccc32)c1` as the molecule, how does the survival read?
The survival was active: 8%.

For `Cc1ccc(C)c(CN2C(=O)N(c3cc(Cl)ccc3C)S(=O)(=O)c3ccccc32)c1`, which survival is on record?
Its survival is inactive: 59%.

With `CC(C)Cc1ccc(S(=O)(=O)Nc2cc3c(cc2N2CCOCC2)n(C)c(=O)c(=O)n3C)cc1` as the molecule, how does the survival read?
Its survival is inactive: 63%.

How did the survival turn out when `CCOc1ccccc1CNS(=O)(=O)c1ccc2[nH]c(=O)ccc2c1` was run?
Its survival is inactive: 71%.

How did the survival turn out when `COc1ccc(COC(=O)C2=C(C)NC3(O)c4ccccc4C(=O)C23O)cc1` (stereo unspecified) was run?
The survival was inactive: 89%.

For `COc1cccc(C(=O)Nc2ccc(-c3cc(C(F)(F)F)nn3-c3ccccc3)cc2)c1`, which survival is on record?
Its survival is inactive: 84%.

How did the survival turn out when `CCN(CCCNC(=O)CN1N=C(c2ccc(OC)cc2)CCC1=O)c1cccc(C)c1` was run?
The survival was inactive: 124%.

For `COc1ccc(NC(=O)CSc2nnc(NC(=O)Nc3ccc(OC)cc3)s2)cc1`, which survival is on record?
The survival was inactive: 79%.

Which survival does the source give for `Oc1cc2ccsc2c2ccccc12` here?
The survival was active: 18%.

With `CCOC(=O)C1CCCN(C(=O)c2cc3c(=O)[nH]c4ccc(C)cc4c3s2)C1` (stereo unspecified) as the molecule, how does the survival read?
Its survival is inactive: 59%.

With `CN(Cc1ccccc1)S(=O)(=O)c1cc(Br)cc2c1N(C(=O)C1CC1)CC2` as the molecule, how does the survival read?
The survival was inactive: 50%.

Which survival does the source give for `CCC(C(=O)Nc1c(C)cc(C)cc1C)n1c(=O)c(-c2ccccc2NC(C)=O)nc2ccccc21` (stereo unspecified) here?
Its survival is inactive: 87%.

With `Cc1cccc(NC(=O)CCCCCn2c(=O)[nH]c3ccsc3c2=O)c1` as the molecule, how does the survival read?
The survival was inactive: 71%.

Which survival does the source give for `COc1cccc(Nc2sc(C(=O)c3ccc(F)cc3)c(N)c2C(=O)NCc2ccc(Cl)cc2)c1` here?
The survival was active: 0%.

How did the survival turn out when `CCOc1ccc(CCNC(=O)CCCn2nc(C)c3sc4ccccc4c3c2=O)cc1` was run?
The survival was inactive: 85%.

For `CCCCN(C)CCCNC(=O)c1cc(-c2ccc(Br)s2)nc2ccccc12`, which survival is on record?
The survival was active: 26%.

With `Cc1ccc(NS(=O)(=O)c2c(C)[nH]c(=O)[nH]c2=O)c(C)c1` as the molecule, how does the survival read?
The survival was inactive: 84%.

`CC1CC(C)CN(C(=O)Cn2c(SCC(=O)N(C(C)C)C(C)C)nc3ccccc32)C1` (stereo unspecified) was tested. Which survival did it give?
The survival was inactive: 106%.

With `COc1cccc(N2CC(NC(=O)CCCc3ccccc3)CC2=O)c1` (stereo unspecified) as the molecule, how does the survival read?
Its survival is inactive: 88%.

Which survival does the source give for `COc1ccc(-c2ccc(NS(=O)(=O)c3ccc(C(C)=O)cc3)cc2)nn1` here?
The survival was inactive: 76%.

With `NNC(=O)CCc1nc2ccccc2[nH]1` as the molecule, how does the survival read?
The survival was inactive: 110%.

Which survival does the source give for `Cc1cccc(N2CCN(C(=O)c3cn(CC(C)C)c(=O)c4c3c3ccccc3n4C)CC2)c1C` here?
The survival was inactive: 89%.

For `COc1cc(S(=O)(=O)N2CCN(C)CC2)c(C)cc1C`, which survival is on record?
Its survival is inactive: 103%.

Which survival does the source give for `Cc1ccc(-c2noc(CNC(=O)c3ccc(Br)o3)n2)cc1` here?
The survival was inactive: 99%.

Which survival does the source give for `Cc1cc(C)c(C(=O)O)c(=O)[nH]1` here?
The survival was inactive: 104%.

For `Cc1cccc(N2CCN(C(=O)c3cccc(-n4c(C)nc5cccnc54)c3)CC2)c1C`, which survival is on record?
The survival was inactive: 126%.

With `Cc1ccccc1-c1nc2cc(NC(=O)Cc3ccc(Cl)cc3)ccc2o1` as the molecule, how does the survival read?
The survival was inactive: 94%.

Which survival does the source give for `CCOc1ccccc1CNC(=O)C1CCN(c2nn3cc(-c4ccc(F)cc4)nc3s2)CC1` here?
The survival was inactive: 93%.

Which survival does the source give for `CCCCCCOc1ccc(C2C(=O)N(C3CCCCC3)CC(=O)N2CCC)cc1` (stereo unspecified) here?
The survival was inactive: 75%.

Which survival does the source give for `N#C/C(=C\c1ccc(Cl)cc1Cl)c1nc(-c2cccc(Cl)c2)cs1` here?
The survival was inactive: 82%.

`CCOc1ccccc1N(CC(=O)NCCSc1ccccc1)S(=O)(=O)c1ccccc1` was tested. Which survival did it give?
Its survival is inactive: 75%.

Which survival does the source give for `CC(C)c1ccc(CN(Cc2ccco2)c2cnc(S(C)(=O)=O)nc2C(=O)Nc2ccc(F)cc2)cc1` here?
Its survival is inactive: 86%.

With `Cc1ccc(C(=O)Nc2cc3nn(-c4ccccc4)nc3cc2Cl)c(C)c1` as the molecule, how does the survival read?
Its survival is inactive: 62%.

For `Cc1nnc(N2CCC(C(=O)NCCc3ccccc3Cl)CC2)c2nn(-c3ccccc3)c(C)c12`, which survival is on record?
Its survival is inactive: 124%.

How did the survival turn out when `Cc1cccc(N2CCN(C(=O)Nc3cn(CC(C)C)c(=O)c4ccccc34)CC2)c1C` was run?
Its survival is inactive: 68%.

For `COc1ccccc1C(=O)Nc1ccncc1`, which survival is on record?
Its survival is inactive: 105%.

`COc1ccccc1Cc1nc2ccccc2nc1SCC(=O)N(C)c1ccc(F)cc1` was tested. Which survival did it give?
Its survival is inactive: 84%.

`CCc1nn(CC(=O)NCCCN(CC(C)C)CC(C)C)c(=O)c2cc3sc(C)cc3n12` was tested. Which survival did it give?
Its survival is inactive: 131%.

Which survival does the source give for `COc1ccccc1N1CCN(C(=O)Cn2cnc3onc(-c4ccc(F)cc4)c3c2=O)CC1` here?
Its survival is inactive: 82%.

With `CCOC(=O)/C(C#N)=C/c1ccc2c(c1)c1ccccc1n2CC` as the molecule, how does the survival read?
Its survival is inactive: 110%.

`CCCCN(C)C(=O)C1CCCN(c2ncnc3onc(C)c23)C1` (stereo unspecified) was tested. Which survival did it give?
Its survival is inactive: 132%.

With `O=C(O)c1ccc(/C=N/n2cnnc2)cc1` as the molecule, how does the survival read?
Its survival is inactive: 101%.

How did the survival turn out when `CCOc1ccc(C(=O)Nc2cccc(-c3nc4cc(Cl)cc(Cl)c4o3)c2)cc1` was run?
The survival was inactive: 69%.

How did the survival turn out when `COc1ccc(Cn2c(=O)c3oc4ccccc4c3n(Cc3cccc(C(F)(F)F)c3)c2=O)cc1` was run?
Its survival is inactive: 81%.

With `O=C(c1ccc2c(=O)n(CCc3ccccc3)c(=O)[nH]c2c1)N1CCN(c2ccc(F)cc2)CC1` as the molecule, how does the survival read?
Its survival is inactive: 113%.

How did the survival turn out when `Cc1nn(-c2ccccc2)c2c1N(CC(=O)N1CCN(c3cccc(Cl)c3)CC1)C(=O)CS2` was run?
The survival was inactive: 70%.

How did the survival turn out when `COc1ccc(N=C2SC(C(=O)Nc3ccccc3)CC(=O)N2C)cc1` (stereo unspecified) was run?
The survival was inactive: 104%.

Which survival does the source give for `COc1cccc(N2CC(NC(=O)c3ccco3)CC2=O)c1` (stereo unspecified) here?
The survival was active: 10%.

With `CCOc1cccc2sc(N3CCN(C(=O)C4CC4)CC3)nc12` as the molecule, how does the survival read?
The survival was inactive: 53%.

With `Cc1cccc(N2CCN(C(=O)c3ccc4c(c3)N(Cc3cccc(Cl)c3)C(=O)c3ccccc3S4=O)CC2C)c1` (stereo unspecified) as the molecule, how does the survival read?
The survival was inactive: 88%.

`CCCn1cc(S(=O)(=O)c2ccc(CC)cc2)c(=O)c2cc(F)c(N(CC)CC)cc21` was tested. Which survival did it give?
Its survival is inactive: 68%.

For `CCOc1cccc(NC(=O)CSc2ncc(-c3ccccc3)[nH]2)c1`, which survival is on record?
Its survival is inactive: 68%.

`CCOc1ccc(CNC(=O)c2cc(=O)[nH]c3ccc(S(=O)(=O)N4CCCC4)cc23)cc1` was tested. Which survival did it give?
Its survival is inactive: 70%.

Which survival does the source give for `COc1ccc(C(=O)Nc2nc3c(s2)CCCC3)cc1Cl` here?
Its survival is inactive: 40%.

`COc1ccc(Cl)cc1CNCCSc1nnnn1C` was tested. Which survival did it give?
The survival was inactive: 74%.

Which survival does the source give for `Cn1c(=O)c2c(-c3ccccc3)n3c(c2n(C)c1=O)C(c1ccco1)Nc1ccccc1-3` (stereo unspecified) here?
Its survival is inactive: 85%.

For `CC(=O)c1ccc(N2CCN(C(=O)CCCCn3c(=O)[nH]c4ccccc4c3=O)CC2)cc1`, which survival is on record?
The survival was inactive: 153%.

`c1nnnn1C12CC3CC(CC(C3)C1)C2` was tested. Which survival did it give?
Its survival is inactive: 105%.

How did the survival turn out when `Cc1cc(C)cc(NC(=O)CCCn2c3ccccc3c(=O)c3ccccc32)c1` was run?
The survival was inactive: 69%.

For `Cc1cccc(Cn2c(=O)n(CCC(=O)NCCc3ccc(Cl)cc3)c(=O)c3sccc32)c1`, which survival is on record?
The survival was inactive: 91%.

Which survival does the source give for `CCOc1ccc(NC(=O)c2ccc3c(c2)CCN3S(=O)(=O)c2ccc(Cl)cc2)cc1` here?
Its survival is inactive: 82%.

`Cc1ccc(NC(=O)CCC(=O)N2Cc3ccccc3Oc3ncccc32)cc1F` was tested. Which survival did it give?
Its survival is inactive: 82%.

Which survival does the source give for `O=C(NCc1ccc(F)cc1)c1ccc2nc(N3CCCCC3)sc2c1` here?
The survival was inactive: 87%.

For `COc1ccc(OC)c(CNC(=O)c2nn(C)c3c2CSc2ccccc2-3)c1`, which survival is on record?
Its survival is inactive: 115%.

With `O=C(NC1CCCCC1)NC1CCN(Cc2nnnn2Cc2ccco2)CC1` as the molecule, how does the survival read?
The survival was inactive: 97%.

How did the survival turn out when `Fc1cccc(Cl)c1Cn1c(-c2cccs2)nc2ccccc21` was run?
The survival was active: 26%.

`Cc1cc(-c2ccc(C)c(S(=O)(=O)NCC3CCN(Cc4ccc(F)cc4)CC3)c2)on1` was tested. Which survival did it give?
Its survival is inactive: 73%.

Which survival does the source give for `CNC(=S)N(Cc1cc2cc(OC)ccc2[nH]c1=O)CC1CCCO1` (stereo unspecified) here?
Its survival is inactive: 108%.

`O=C(NCC(c1ccc2c(c1)OCO2)N1CCOCC1)C(=O)Nc1cccc(Cl)c1` (stereo unspecified) was tested. Which survival did it give?
Its survival is inactive: 73%.

Which survival does the source give for `CC(=O)c1ccc(NC(=O)c2cc(S(=O)(=O)N3CCCCCC3)cn2C)cc1` here?
The survival was inactive: 70%.

With `COc1ccc(-c2nc3c(c(SCC(=O)Nc4ccccc4F)n2)Cc2cc(C)ccc2O3)cc1` as the molecule, how does the survival read?
The survival was inactive: 80%.

How did the survival turn out when `CC1CCCC(C)N1S(=O)(=O)c1ccccc1` (stereo unspecified) was run?
Its survival is inactive: 101%.

`Cc1ccc(NC(=O)CCCc2nnc3n(C)c(=O)c4sccc4n23)cc1F` was tested. Which survival did it give?
Its survival is inactive: 79%.

With `CCCNC(=O)c1ccc2c(c1)sc1nc(-c3ccc(C)cc3)cn12` as the molecule, how does the survival read?
The survival was inactive: 103%.

How did the survival turn out when `NC(=O)C1(N2CCCCC2)CCN(C(=O)Nc2ccc(F)cc2)CC1` was run?
The survival was inactive: 102%.

With `CCc1ccccc1NC(=O)CN1C(=O)c2ccccc2Sc2ncccc21` as the molecule, how does the survival read?
The survival was inactive: 95%.

How did the survival turn out when `O=C(CNC(=O)c1ccccc1)OCc1cc(=O)n2ccsc2n1` was run?
Its survival is inactive: 73%.

`CC1CCn2c(nc3cc(C(=O)NCc4ccccc4)ccc32)C1` (stereo unspecified) was tested. Which survival did it give?
Its survival is inactive: 89%.

`Cc1ccc(C)c(N2CCN(C(=O)C3CCCN(Cc4nc(-c5cccc(Cl)c5)oc4C)C3)CC2)c1` (stereo unspecified) was tested. Which survival did it give?
Its survival is inactive: 81%.

Which survival does the source give for `CCn1cc(C(=O)NCCCN2CCCC(C)C2)c(=O)c2cc(S(=O)(=O)N(C)C3CCCCC3)ccc21` (stereo unspecified) here?
The survival was inactive: 91%.
